The list shows a part of the results.
The sequences below were run on PF3D7_0420300 AP2 domain 1 (GST-tagged) (assay: gcPBM binding intensity (ln(normalized median fluorescence intensity)); higher = stronger DNA binding).
In short: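 For binding intensity, the highest Masliner-normalised natural-log median intensity across replicate spots of either probe orientation was taken. Protein bound to the array was stained with Alexa488 anti-GST antibody and scanned at 488 nm. The protein, GST-tagged P. falciparum DNA-binding domains from E. coli at about 25 μg on average, had been applied for 1 h to an Agilent 4 × 180k array of primer-extended double-stranded 36-bp intergenic genomic probes and negative controls.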

Sequence	gcPBM binding intensity (ln)
TTCTTAAAAAATCAAACACACATATATAAATACATA [CACACA_site5301]	9.52
AAAGACGTTTATAAATGTACATACACTTTAAAAGTT [XGTACX_site8753]	9.08
CCCCATTTATCTTAAGCATGCCATGGTTTTAGATAT [TGCATGCA_site24]	9.43
ATAAAAAAAAAAAATACACACATATATATATATATA [CACACA_site1709]	9.41
TTATTTATTTATTATAGTTCACTTGAAAATACAAGA [CACACA_negctrl_site1480]	8.84
CATATATACAGTAACACACACAAAAAAATATGAATA [CACACA_site3996]	10
AATAGTGTCATAAAAACTATTATCATATAATGTGAA [CACACA_negctrl_site1578]	9.14
TAATTTATAACACGCGCACACATATATATATAGTAA [CACACA_site121]	9.57
TTGTTGTGTATTATCGTGCACATAATATAAAAGATT	9.19
TTTCTTTTTAACTCTTACATAATAGGTGGTAGAAGG [TGCATGCA_negctrl_site176]	8.79
ATACTAAATGAACACACACACATATATATATATAAT [CACACA_site4232]	10.1
TATAACTTTTTTATTACACACCTATGTAATATTATA [CACACA_site944]	9.37
AACAGACATAGAAACACACATACATACATACATACA [CACACA_site2479]	9.41
ATGTTTTATATTTTTTTTTTGTTTGCTTGTTTCCTC [CACACA_negctrl_site870]	9.48
AAGGGAAATATTGAAACACACACGAACCCACGTATT [CACACA_site252]	9.73
TTCTTAAATGTAAATGTATATGTATTAAAAAGAGAA [TGCATGCA_negctrl_site597]	9.1
TACTGTGTTTTGGTTGTACACACGCTACATTATATA [CACACA_site8863]	9.78
TTATAATATTAATGTGCACACAATTAAAATATTATA [CACACA_site2046]	9.23
AGGATATAAATATTCACACACACATGGAGATATATA [CACACA_site6317]	9.98

Sequence	gcPBM binding intensity (ln)
TACATTAACGGATTATTTCTCAATACAACATCATTT [CACACA_negctrl_site981]	9.15
GTTTGTATGTCCAAATGTACATATGATTTTATGAAA [XGTACX_site6595]	9.2
ACCTAATTCAAATACAGTACATATACAATATATATA [XGTACX_site2779]	9.32
AAAAAATATTGAAGTACACACATTATAAACTTTTTT [CACACA_site5029]	9.5
AAAATTAAAAATTACTGTACGTATTAGAGAATAAAT [XGTACX_site2567]	9.31
TATATTGTATAAAAATGTACATGCAATAAATTTAGT [XGTACX_site5621]	9.42
AAAATATTAATTAATACATGCATATATATATATATA [TGCATGCA_site585]	9.28
TTAATTATGGACAGGGTGCACATGAATAATAATACC	9.66
TATATTATAATAAGACGTACAAGGATGTTAAAACTT [XGTACX_site5828]	9.35
AAGGAGAAATAAATATTAAAAAATTTATATATATAT [CACACA_negctrl_site1801]	9.05
TAATATTGCAAATATAAAAAAAAATAAACCATATAT [XGTACX_negctrl_site458]	9.39
TTCTTTTTTAACAACAAAAAAAAAAAAAAAAAAAAA [TGCATGCA_negctrl_site87]	8.37
TTTTTTGCTTTCAACACACATACAATCTATATAATC [CACACA_site4125]	9.44
TAAACCTGTAGAGATGCATGCATTGTTAACATGGTG [TGCATGCA_site515]	9.24
AAAAAATTGACTAATGCACACAATTACATATATATA [CACACA_site1689]	9.41
CAATTTTTCTATCATTGTACTTTTATATAATAGTGT [XGTACX_site1810]	9.41
AATTGTTCTATGATTTGTACACACTTTTTTTTAAAA [XGTACX_site5984]	9.42
ATTTTTTACGTATAGTACAAAGTTTTATGATACATA [CACACA_negctrl_site965]	9.14
ATGAAATATATTATATGTACATATTTATTTTTTATA [XGTACX_site7319]	9.16

Sequence	gcPBM binding intensity (ln)
CATTATAAAAAATAAAAAAGAAATAATTGTATATGC [CACACA_negctrl_site478]	9.38
AAATAGTAAATAAGGGGTACAAAAAAAAAAAAAAAA [XGTACX_site8362]	8.83
AAATGCTAAAAATAGAGTACAGATAACGAAAAGTGT [XGTACX_site8830]	9.86
ACAATTTTATTTAAAGTGCATGTAAAATTAAAACTT	9.06
AATAAATATCAATACACACACACAAAAGTGAATAAA [CACACA_site3763]	10
TATACATTTATGTACACACACATATATGTATATTTA [CACACA_site2966]	9.54
AAAGGAAGAAAAAATAGTACATATATATATATATAA [XGTACX_site766]	9.25
TCCATCCACATATATGTACACACATATATATATATA [CACACA_site8970]	9.63
GTTAAGGGTATATATACACACATATGTAATACATGA [CACACA_site5650]	9.52
ACATGTGAAGGGAACATAAATTGGGGTTTTATATTG [XGTACX_negctrl_site508]	9.61
AAATTATAAATAATTTGTACATAAAAATTGGTAAAG [XGTACX_site5197]	9.07
GAATATAAAAAAGAATGTACTTGAACAGTCCTAAAA [XGTACX_site745]	9.11
TTTTGTTAGTTTTTTTTCTTATATTACATTTTCACG [CACACA_negctrl_site1466]	9.48
ATGTAGTCTCAAGACTGTACAAACAAGTAAATAAAA [XGTACX_site4120]	9.15
TGTATAAGTGCCGTTATACACACGTTATATAAATAT [CACACA_site438]	9.26
TATCTTATTTTAAAAGTGCATGGAAAGGGGTTTTTG	9.05
ATAAATTTATATACTTGTACATATATATATTACATA [XGTACX_site6697]	9.24
TATATATACATATACACACACACACCCATATATATA [CACACA_site2246]	10.2
TTTGAAATAAAAAGGTGTACACTCGATTAATAAATA [XGTACX_site6943]	9.12

— the supplement of paper PMC11417369
